# Test results: the supplement of paper PMC4967469
# A lower IC50 marks a more sensitive line; where the fit passes the top or lowest dose, that dose stands as a limit. The AUC spans the tested range (256-fold, ending at the top dose) of the same fit; the more sensitive the line, the further below 1. An inferred top dose was calculated from the reported fits.
# Compound: CCc1nc(-c2cccc(C)c2)c(-c2ccnc(NC(=O)c3ccccc3)c2)s1 [TAK-715]
# Assay: Viability of human cancer cell lines after 72 h of drug (GDSC screen)
# Details: top dose inferred
# Procedure: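 Human cancer cell lines in 384-well plates, medium with 10% serum, drug for 72 h over a 256-fold dose range (nine 2-fold or five 4-fold steps up to the top dose). Adherent lines were fixed and stained with the nucleic acid dye Syto60, suspension lines read with resazurin; signal relative to control wells, capped at 0 and 100%. One two-parameter sigmoid per drug and line, fitted in a mixed model over all curves with the slope shared within a line.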
Cell Line,AUC,IC50
"DND-41 (T-cell leukaemia, suspension, top dose 20 µM)",0.899,> 20 µM
"DOK (head and neck, adherent, top dose 20 µM)",0.969,> 20 µM
"DOV13 (ovary, adherent, top dose 20 µM)",0.928,> 20 µM
"DSH1 (bladder, adherent, top dose 20 µM)",0.952,> 20 µM
"DU-145 (prostate, adherent, top dose 20 µM)",0.967,> 20 µM
"DU-4475 (breast, suspension, top dose 20 µM)",0.894,16.2 µM
"Daoy (medulloblastoma, adherent, top dose 20 µM)",0.97,> 20 µM
"Daudi (Burkitt lymphoma, suspension, top dose 20 µM)",0.9,19.8 µM
"Detroit562 (head and neck, adherent, top dose 20 µM)",0.968,> 20 µM
"DoTc2-4510 (cervix, adherent, top dose 20 µM)",0.957,> 20 µM
"EB2 (Burkitt lymphoma, suspension, top dose 20 µM)",0.68,3.76 µM
"EB-3 (Burkitt lymphoma, suspension, top dose 20 µM)",0.87,> 20 µM
"EBC-1 (lung squamous cell carcinoma, adherent, top dose 20 µM)",0.96,> 20 µM
"EC-GI-10 (oesophagus, adherent, top dose 20 µM)",0.946,> 20 µM
"ECC10 (stomach, suspension, top dose 20 µM)",0.831,13.5 µM
"EFM-19 (breast, adherent, top dose 20 µM)",0.951,> 20 µM
"EFM-192A (breast, adherent, top dose 20 µM)",0.941,> 20 µM
"EFO-21 (ovary, adherent, top dose 20 µM)",0.925,> 20 µM
"EFO-27 (ovary, adherent, top dose 20 µM)",0.917,> 20 µM
"EGI-1 (biliary tract, adherent, top dose 20 µM)",0.903,> 20 µM
"EJM (lymphoid neoplasm, semi-adherent, top dose 20 µM)",0.934,> 20 µM

Cell Line,AUC,IC50
"EKVX (lung adenocarcinoma, adherent, top dose 20 µM)",0.961,> 20 µM
"EM-2 (chronic myeloid leukaemia, suspension, top dose 20 µM)",0.918,> 20 µM
"EMC-BAC-1 (lung adenocarcinoma, adherent, top dose 20 µM)",0.861,> 20 µM
"EMC-BAC-2 (lung adenocarcinoma, adherent, top dose 20 µM)",0.933,> 20 µM
"EN (endometrium, adherent, top dose 20 µM)",0.95,> 20 µM
"EPLC-272H (lung squamous cell carcinoma, adherent, top dose 20 µM)",0.83,14.9 µM
"ES1 (Ewing sarcoma, adherent, top dose 20 µM)",0.841,13.6 µM
"ES3 (Ewing sarcoma, adherent, top dose 20 µM)",0.929,> 20 µM
"ES4 (Ewing sarcoma, adherent, top dose 20 µM)",0.808,12.2 µM
"ES5 (Ewing sarcoma, adherent, top dose 20 µM)",0.741,6.89 µM
"ES6 (Ewing sarcoma, adherent, top dose 20 µM)",0.955,> 20 µM
"ES7 (Ewing sarcoma, adherent, top dose 20 µM)",0.857,17 µM
"ES8 (Ewing sarcoma, adherent, top dose 20 µM)",0.881,18.2 µM
"ES-2 (ovary, adherent, top dose 20 µM)",0.956,> 20 µM
"ESO26 (oesophagus, adherent, top dose 20 µM)",0.874,17.5 µM
"ESO51 (oesophagus, semi-adherent, top dose 20 µM)",0.955,> 20 µM
"ESS-1 (endometrium, adherent, top dose 20 µM)",0.969,> 20 µM
"ETK-1 (biliary tract, adherent, top dose 20 µM)",0.933,> 20 µM
"EVSA-T (breast, adherent, top dose 20 µM)",0.958,> 20 µM
"EW-1 (Ewing sarcoma, semi-adherent, top dose 20 µM)",0.878,17.5 µM
"EW-3 (Ewing sarcoma, adherent, top dose 20 µM)",0.956,> 20 µM

Cell Line,AUC,IC50
"EW-7 (Ewing sarcoma, semi-adherent, top dose 20 µM)",0.903,> 20 µM
"EW-11 (Ewing sarcoma, adherent, top dose 20 µM)",0.98,> 20 µM
"EW-13 (Ewing sarcoma, suspension, top dose 20 µM)",0.786,9.67 µM
"EW-16 (Ewing sarcoma, adherent, top dose 20 µM)",0.934,> 20 µM
"EW-18 (Ewing sarcoma, suspension, top dose 20 µM)",0.858,18.3 µM
"EW-24 (Ewing sarcoma, semi-adherent, top dose 20 µM)",0.942,> 20 µM
"EoL-1-cell (haematopoietic neoplasm, suspension, top dose 20 µM)",0.848,12.3 µM
"FADU (head and neck, adherent, top dose 20 µM)",0.959,> 20 µM
"FLO-1 (oesophagus, adherent, top dose 20 µM)",0.904,> 20 µM
"FTC-133 (thyroid, adherent, top dose 20 µM)",0.976,> 20 µM
"FU97 (stomach, adherent, top dose 20 µM)",0.894,> 20 µM
"FU-OV-1 (ovary, adherent, top dose 20 µM)",0.881,> 20 µM
"Farage (B-cell lymphoma, suspension, top dose 20 µM)",0.861,12.2 µM
"G-292 Clone A141B1 (osteosarcoma, adherent, top dose 20 µM)",0.976,> 20 µM
"G-361 (melanoma, adherent, top dose 20 µM)",0.937,> 20 µM
"G-401 (kidney, adherent, top dose 20 µM)",0.815,12.4 µM
"G-402 (soft tissue, adherent, top dose 20 µM)",0.926,> 20 µM
"G-MEL (melanoma, adherent, top dose 20 µM)",0.93,> 20 µM
"GAK (melanoma, adherent, top dose 20 µM)",0.978,> 20 µM
"GAMG (glioma, adherent, top dose 20 µM)",0.967,> 20 µM
"GB-1 (glioma, adherent, top dose 20 µM)",0.958,> 20 µM

Cell Line,AUC,IC50
"GCIY (stomach, adherent, top dose 20 µM)",0.976,> 20 µM
"GCT (soft tissue, adherent, top dose 20 µM)",0.989,> 20 µM
"GDM-1 (acute myeloid leukaemia, suspension, top dose 20 µM)",0.815,10.4 µM
"GI-1 (glioma, adherent, top dose 20 µM)",0.977,> 20 µM
"GI-ME-N (neuroblastoma, adherent, top dose 20 µM)",0.936,> 20 µM
"GMS-10 (glioma, adherent, top dose 20 µM)",0.988,> 20 µM
"GOTO (neuroblastoma, adherent, top dose 20 µM)",0.951,> 20 µM
"GP5d (large intestine, adherent, top dose 20 µM)",0.954,> 20 µM
"GR-ST (lymphoblastic leukaemia, suspension, top dose 20 µM)",0.902,> 20 µM
"GRANTA-519 (B-cell lymphoma, suspension, top dose 20 µM)",0.883,17.6 µM
"GT3TKB (stomach, adherent, top dose 20 µM)",0.95,> 20 µM
"H4 (glioma, adherent, top dose 20 µM)",0.894,> 20 µM
"H9 (lymphoid neoplasm, suspension, top dose 20 µM)",0.984,> 20 µM
"H290 (mesothelioma, adherent, top dose 20 µM)",0.97,> 20 µM
"H513 (mesothelioma, semi-adherent, top dose 20 µM)",0.979,> 20 µM
"H2369 (mesothelioma, adherent, top dose 20 µM)",0.983,> 20 µM
"H2373 (mesothelioma, adherent, top dose 20 µM)",0.982,> 20 µM
"H2461 (mesothelioma, adherent, top dose 20 µM)",0.983,> 20 µM
"H2591 (mesothelioma, adherent, top dose 20 µM)",0.962,> 20 µM
"H2595 (mesothelioma, adherent, top dose 20 µM)",0.977,> 20 µM
